The source of these data is publication PMC4242493.

The list shows a part of the results. The list includes weakly bound sequences.

The test has as its target MaxL homodimer (UniProt P61244). Put plainly: universal protein-binding microarray (PBM). As to conditions: PBS-based mixture, 10 nM His-tagged protein dimer, 2% milk, 200 ng/uL BSA, 50 ng/uL salmon testes DNA, 0.02% TX-100; detection with Alexa 488 anti-His …; high values mean tight binding; most listed sequences are background and not binding sites; double strand, one strand shown.
UniProt P61244, sequence (P61244 whole entry): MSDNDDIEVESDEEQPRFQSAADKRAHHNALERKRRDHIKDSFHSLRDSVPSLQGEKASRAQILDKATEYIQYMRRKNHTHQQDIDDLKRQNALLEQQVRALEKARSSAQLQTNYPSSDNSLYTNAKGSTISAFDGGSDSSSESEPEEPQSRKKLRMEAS
Turning to AACTGGGT, the binding signal (normalized occupancy) worked out at 0.0709.

With AATGTAGC, the binding signal (normalized occupancy) is 0.0788.

CTCAGACA: the binding signal (normalized occupancy) came to 0.0793.

For the sequence CAGAGGGG, the binding signal (normalized occupancy) came to 0.0714.

As for AAAAACAA, the binding signal (normalized occupancy) is 0.0692.

Turning to CAAGGAAC, the binding signal (normalized occupancy) stood at 0.079.

On to CCTGATAC, for which the binding signal (normalized occupancy) was 0.0821.

With CAGTCTAG, the binding signal (normalized occupancy) is 0.067.

In the case of AACGGAAC, the binding signal (normalized occupancy) stood at 0.0734.

As to CAATCATA, the binding signal (normalized occupancy) stood at 0.0876.

As for CTCGATAA, the binding signal (normalized occupancy) turned out to be 0.0739.

For the sequence GATCGAGC, the binding signal (normalized occupancy) was determined as 0.0745.

Consider ACTCCGAC, for which the binding signal (normalized occupancy) amounted to 0.0724.

AGGAGGTA: the binding signal (normalized occupancy) was found to be 0.0777.

Turning to TCAGTAAA, the binding signal (normalized occupancy) was found to be 0.0712.

For the sequence CCCCAGAG, the binding signal (normalized occupancy) came out at 0.0676.

As to CGTAAACA, the binding signal (normalized occupancy) was 0.0753.

Consider CACCCACG, for which the binding signal (normalized occupancy) is 0.0964.

With CGATCGTA, the binding signal (normalized occupancy) turned out to be 0.0711.

Take ACGAGGAG: the binding signal (normalized occupancy) came out at 0.0882.

In the case of ACTTACTC, the binding signal (normalized occupancy) stood at 0.07.

Consider ACCACGGG, for which the binding signal (normalized occupancy) worked out at 0.0834.

With CGTGTATA, the binding signal (normalized occupancy) turned out to be 0.0906.

AAGCATGG: the binding signal (normalized occupancy) came to 0.11.

Regarding TCTCCTCA, the binding signal (normalized occupancy) was found to be 0.0837.

As for CAGGTAAG, the binding signal (normalized occupancy) is 0.0782.

For CCATATAA, the binding signal (normalized occupancy) is 0.0848.

For the sequence ACCTCACG, the binding signal (normalized occupancy) was 0.0869.

As to AGCGTACC, the binding signal (normalized occupancy) stood at 0.0675.

Turning to GGTAGATA, the binding signal (normalized occupancy) was 0.0813.

For the sequence ATAGGCCG, the binding signal (normalized occupancy) came to 0.0705.

In the case of CCAAGCTA, the binding signal (normalized occupancy) is 0.0731.

For the sequence GCGACGGA, the binding signal (normalized occupancy) amounted to 0.069.

Regarding CCACAGGA, the binding signal (normalized occupancy) was 0.0722.

Take GTTGAGTA: the binding signal (normalized occupancy) was determined as 0.0752.

Turning to ACCTTGTG, the binding signal (normalized occupancy) is 0.0883.

On to CCTAGGCC, for which the binding signal (normalized occupancy) was determined as 0.069.

On to CGCCGTCA, for which the binding signal (normalized occupancy) amounted to 0.0797.

For AGTACGGG, the binding signal (normalized occupancy) was determined as 0.0741.

Regarding AACATAAG, the binding signal (normalized occupancy) came to 0.0778.

For ACTAAACA, the binding signal (normalized occupancy) was 0.0775.

ACCCAGCG: the binding signal (normalized occupancy) is 0.0726.

Turning to CTACGCGC, the binding signal (normalized occupancy) was found to be 0.0727.

In the case of ATTTATGG, the binding signal (normalized occupancy) amounted to 0.0826.

Regarding ACGCGCCT, the binding signal (normalized occupancy) stood at 0.0828.

Take ATAGTGGG: the binding signal (normalized occupancy) is 0.0782.

For the sequence GACGCACA, the binding signal (normalized occupancy) was 0.0845.

As to CGTGCGCC, the binding signal (normalized occupancy) is 0.0922.

For the sequence CGCGGCCA, the binding signal (normalized occupancy) is 0.071.

For the sequence AGCTCGTA, the binding signal (normalized occupancy) came out at 0.07.

Turning to ATAGTTTA, the binding signal (normalized occupancy) is 0.073.

For AAATGGTG, the binding signal (normalized occupancy) came out at 0.0754.

As for AGTACGAT, the binding signal (normalized occupancy) worked out at 0.0793.

As to CCACTGCA, the binding signal (normalized occupancy) was determined as 0.0761.

Take AGGCTCGC: the binding signal (normalized occupancy) came out at 0.0699.

For ATCGATTA, the binding signal (normalized occupancy) was determined as 0.0735.

For ACTCCATC, the binding signal (normalized occupancy) worked out at 0.0768.

With GAGCAGAA, the binding signal (normalized occupancy) came to 0.0709.

In the case of CACGTTTC, the binding signal (normalized occupancy) stood at 0.105.

Take CGGATGTA: the binding signal (normalized occupancy) was 0.0773.

For GCTCTTAA, the binding signal (normalized occupancy) was 0.0748.

For TCTTCCAA, the binding signal (normalized occupancy) was found to be 0.0756.

On to TAACGTAA, for which the binding signal (normalized occupancy) amounted to 0.079.

In the case of ATTTATAC, the binding signal (normalized occupancy) came out at 0.0745.

CCGTGGAG: the binding signal (normalized occupancy) amounted to 0.0796.

Take ATCGGGAC: the binding signal (normalized occupancy) worked out at 0.0751.

ACAGTTGA: the binding signal (normalized occupancy) was 0.0742.

Consider GACCGAGA, for which the binding signal (normalized occupancy) is 0.0682.

CACGGACA: the binding signal (normalized occupancy) is 0.0758.

ACCAAGAC: the binding signal (normalized occupancy) amounted to 0.0733.

As to ACAGGTCG, the binding signal (normalized occupancy) was found to be 0.0751.

Take CGAAATAG: the binding signal (normalized occupancy) came to 0.0683.

For the sequence GGAGGGAC, the binding signal (normalized occupancy) came to 0.0689.

In the case of CCGGAAGC, the binding signal (normalized occupancy) was 0.0674.

Consider CCCCCCGA, for which the binding signal (normalized occupancy) was 0.0822.

In the case of TAATCACA, the binding signal (normalized occupancy) is 0.0826.

As to AATTATAC, the binding signal (normalized occupancy) stood at 0.0757.

On to ATAGTGTG, for which the binding signal (normalized occupancy) came to 0.0876.

As to TAAAACAA, the binding signal (normalized occupancy) amounted to 0.0728.

Regarding AACCGGCG, the binding signal (normalized occupancy) is 0.0691.

For AGAAGTAA, the binding signal (normalized occupancy) came out at 0.0742.

On to ACATGCGG, for which the binding signal (normalized occupancy) was 0.129.

As for GGAATAAC, the binding signal (normalized occupancy) is 0.0748.

Take CCCGAACC: the binding signal (normalized occupancy) amounted to 0.0685.

For CACATCCG, the binding signal (normalized occupancy) amounted to 0.077.

Take GAATCGGA: the binding signal (normalized occupancy) turned out to be 0.0706.

Take GGTTAGTA: the binding signal (normalized occupancy) came to 0.0806.

Regarding TGCCCCAA, the binding signal (normalized occupancy) was 0.0762.

Regarding CCCTCAAC, the binding signal (normalized occupancy) is 0.0749.

As for CGGTCTTA, the binding signal (normalized occupancy) was 0.0739.

For GATCCATA, the binding signal (normalized occupancy) came out at 0.0812.

Regarding TCGAATAA, the binding signal (normalized occupancy) stood at 0.0757.

ATTCTCTA: the binding signal (normalized occupancy) turned out to be 0.0764.

Turning to GGTGAATA, the binding signal (normalized occupancy) turned out to be 0.073.
